# Experimental data as given in PubChem BioAssay AID1434 (Sanford-Burnham Center for Chemical Genomics, 2008).
# This is one part of the list. Further columns of the screen follow, without active or inactive calls. The list favours compounds with an active or inconclusive main result.
# Target: Runt-related transcription factor 1 (Homo sapiens) + Core-binding factor subunit beta (Homo sapiens) (UniProt Q01196+Q13951)
# Assay: disruptors of Runt domain/CBFb-SMMHC interaction – biochemical, FRET, Cerulean-Runt, Venus-CBFb-SMMHC, uHTS, primary screen (AID 1434);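 note: 0% = DMSO wells and 100% = wells with excess untagged CBFb-SMMHC; inhibitors lower the FRET ratio by blocking Runt binding to CBFb-SMMHC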
# Details: Cerulean-Runt/Venus-CBFb-SMMHC FRET ratio 530/480, 1 h; retest duplicate average; at 20 µM; stronger effect = higher value
# Sequence of UniProt Q01196 (Q01196 whole entry, looked up, the tested form may be a part): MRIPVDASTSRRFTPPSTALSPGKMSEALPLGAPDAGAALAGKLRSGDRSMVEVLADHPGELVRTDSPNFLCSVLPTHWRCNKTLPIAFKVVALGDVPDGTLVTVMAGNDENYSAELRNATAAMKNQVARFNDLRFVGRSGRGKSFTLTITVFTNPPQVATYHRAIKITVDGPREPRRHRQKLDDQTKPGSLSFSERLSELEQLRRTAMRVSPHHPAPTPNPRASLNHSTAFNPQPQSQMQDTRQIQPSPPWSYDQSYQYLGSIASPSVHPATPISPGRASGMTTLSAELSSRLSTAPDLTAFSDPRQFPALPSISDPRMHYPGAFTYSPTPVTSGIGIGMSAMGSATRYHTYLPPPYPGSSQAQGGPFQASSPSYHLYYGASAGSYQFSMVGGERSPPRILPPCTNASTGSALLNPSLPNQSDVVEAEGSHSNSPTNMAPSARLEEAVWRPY
# Sequence of UniProt Q01196 (Q13951 whole entry, looked up, the tested form may be a part): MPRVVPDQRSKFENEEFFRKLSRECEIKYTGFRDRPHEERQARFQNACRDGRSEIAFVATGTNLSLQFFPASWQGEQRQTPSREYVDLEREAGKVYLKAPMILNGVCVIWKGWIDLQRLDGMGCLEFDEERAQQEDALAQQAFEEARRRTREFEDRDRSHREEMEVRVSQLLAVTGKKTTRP
row,Structure (SMILES),inhibition [%]
1,CCCNC(=O)c1c(N)n(-c2cc(OC)cc(OC)c2)c2nc3ccccc3nc12,95.1
2,CC(C)S(=O)(=O)C1=NSC2=NC(=O)/C(=C\c3ccc(-c4ccccc4)o3)C(=N)N21,71.5
3,Cc1ccc2nc(NCCC(=O)O)nc(-c3ccccc3)c2c1,70.6
4,COC(=O)c1cc2c(=O)n3cccc(C)c3nc2n(Cc2cccnc2)c1=N,72.9
5,O=C(NCc1ccco1)c1cc2ccc(O)cc2oc1=O,72.9
6,CCOC(=O)C1=CN(CC2CCCO2)C=C(C(=O)OCC)C1c1ccccc1C(F)(F)F (centres undefined),107
7,COCCN1C=C(C(=O)OC)C(c2cc(Br)c(OC)c(OC)c2)C(C(=O)OC)=C1,166
8,O=C(O)c1cc(Cl)ccc1-c1ccc(/C=C/c2cc(C(F)(F)F)[nH]c(=O)n2)o1,70.6
9,CCOc1ccc(C2C=C(c3ccc(F)cc3)Nc3ncnn32)cc1 (centres undefined),71.5
10,CCCCc1cc(=O)oc2cc(O)cc(O)c12,59.6
11,N#Cc1c2ccc(O)cc2n2ccccc12,70.6
12,CC1C2=C(CC(C)(C)CC2=O)NC2=C1C(=O)CC(C)(C)C2,70.6
13,N#C/C(=C(/O)CCCl)c1ccccn1,78
14,COc1ccccc1C1CN(c2ccc(F)cc2F)N=C1c1cccs1 (centres undefined),60.6
15,CN(CCC#N)c1ccc(/C=C(\C#N)c2ccccn2)cc1,69.1
16,CCc1cc(=O)oc2c(CN3CCN(C)CC3)c(O)c(Cl)cc12,192
17,CC(=O)c1cc2c(cc1NC(=O)Nc1cccc(Cl)c1)OCCO2,71.5
18,CCN1CCS/C1=C\C=C\C1=[N+](CC)CCS1,185
19,CCN1/C(=C2\OC(=S)N(C)C2=O)Sc2ccccc21,63.8
20,Oc1ccc(Nc2nc(N3CCCC3)c3ccccc3n2)cc1,96.5
21,CC(C)CN(Cc1c(O)ccc2c3c(c(=O)oc12)CCC3)CC(C)C,76.8
22,COC(=O)C1=CN(C(C)C)C=C(C(=O)OC)C1c1cc(Br)c(OC)c(OC)c1,71.5
23,COCCCn1c(=N)c(C(=O)NCc2ccc3c(c2)OCO3)cc2c(=O)n3ccccc3nc21,172
24,CCc1cc2c(C)cc(=O)oc2cc1OC(=O)C1CCCN1C(=O)OC(C)(C)C (centres undefined),82.7
25,N#Cc1c(N)n(CCNC(=O)c2ccccc2)c2nc3ccccc3nc12,74.4
26,Cc1ccc(S(=O)(=O)c2c(N)n(NC(=O)C3CC3)c3nc4ccccc4nc23)cc1,82.6

row,Structure (SMILES),inhibition [%]
1,Cc1ccc(-c2c(C#N)c(N)n3c(nc4ccccc43)c2C#N)cc1,137
2,COc1ccc(N2C3=C(C(=O)CC(C)(C)C3)C(c3cnn(C)c3)C3=C2CC(C)(C)CC3=O)cc1,97.8
3,O=C(N/N=C/c1c(O)n(-c2ccccc2Cl)c(=O)c2ccccc12)c1cccnc1,70.6
4,COc1ccc(-c2ccc(CCC(=O)O)n2CC(C)C)cc1,93.7
5,N#Cc1c2ccc(OCC(N)=O)cc2n2ccccc12,70.6
6,CCOc1ccc(-n2c(N)c(C(=O)NCc3ccco3)c3nc4ccccc4nc32)cc1,104
7,NNc1nc2sc3c(c2c(=O)n1C1CCCCC1)CCN(Cc1ccccc1)C3,106
8,CC(NC(=O)OC(C)(C)C)C(=O)Oc1cc2oc(=O)cc(-c3ccccc3)c2cc1Cl (centres undefined),67.7
9,CCOc1ccc2nc(N3CCOCC3)nc(C)c2c1,73.7
10,CCNC(=O)/C(C#N)=C/c1c(N2CCOCC2)nc2ccccn2c1=O,71.5
11,c1ccc2[nH]c(SN3CCOCC3)nc2c1,59.7
12,CC(C)(C)OC(=O)NCCC(=O)Oc1ccc2ccc(=O)oc2c1,87.4
13,O=c1oc2cc(O)ccc2c2c1CCCC2,112
14,CCCN1C2CCCC1CC(NC(=S)Nc1ccc(OC)cc1)C2 (centres undefined),77.8
15,O=c1cc(CN2CCN(S(=O)(=O)c3ccc4c(c3)OCCO4)CC2)c2ccc(O)cc2o1,164
16,COc1ccc2nc3c(cc2c1)c(NC(=O)c1cccs1)nn3CC(C)C,116
17,CCCn1nc(NC(=O)C2CCCO2)c2cc3cccc(C)c3nc21 (centres undefined),99.3
18,CCc1c(C)c(C#N)c2nc3ccccc3n2c1NCc1ccccn1,72.4
19,O=c1c(O)c(-c2cccs2)oc2ccc(Cl)cc12,72.9
20,CCOC(=O)c1c(NC(=O)C(C)Sc2cccc[n+]2[O-])sc2c1CCN(Cc1ccccc1)C2 (centres undefined),76
21,Cc1ccccc1Oc1nc2c(C)cccn2c(=O)c1/C=C(\C#N)C(=O)NC1CCS(=O)(=O)C1 (centres undefined),113
22,CC1(C)Cc2c(sc3ncn4c(=S)[nH]nc4c23)CO1,56.1
23,O=C(O)c1ccccc1-c1ccc(/C=C/c2cc(C(F)(F)F)[nH]c(=O)n2)o1,70.6
24,CCN1CCc2c(sc(N)c2C#N)C1,112
25,COc1ccc(CCNC2=C(Cl)C(=O)N(CCc3ccccc3)C2=O)cc1OC,72.9
26,Cc1cccn2c(=O)c3cc(C(=O)NCC4CCCO4)c(=N)n(CCN4CCOCC4)c3nc12 (centres undefined),124

row,Structure (SMILES),inhibition [%]
1,O=Cc1cn(-c2ccccc2)nc1-c1cc2cc(O)ccc2oc1=O,72.9
2,CCN(CC)c1ccc2cc(C(=O)Nc3ccccn3)c(=O)oc2c1,71.5
3,N#Cc1cc2c(=O)n3ccccc3nc2n(-c2ccccc2Cl)c1=O,70.6
4,Cc1c(O)ccc2c(CN3CCN(CCO)CC3)cc(=O)oc12,71.5
5,COc1ccc(Oc2nc3c(C)cccn3c(=O)c2/C=C(\C#N)C(N)=O)cc1,117
6,Cc1ccc(-n2c(=O)c(C#N)cc3c(=O)n4ccccc4nc32)cc1,71.5
7,CN1/C(=C\C(=O)c2cccs2)C(C)(C)c2ccccc21,71.5
8,NC(=O)c1c(NC(=O)C2COc3ccccc3O2)sc2c1CCN(Cc1ccccc1)C2 (centres undefined),134
9,CCCCCCc1cc2cc(C(=O)Nc3cccc(OC)c3)c(=O)oc2cc1O,90.7
10,CCCn1nc(NC(=O)C2CCCO2)c2cc3cc(C)ccc3nc21 (centres undefined),59.9
11,CCN(CC)c1ccc(/C=c2\sc3nc4ccccc4n3c2=O)c(O)c1,70.6
12,COc1ccccc1NC(=O)c1cc2ccc(O)cc2o/c1=N\O,152
13,O=C(c1cc2c(=O)n3ccccc3nc2s1)N1CCc2ccccc2C1,86.3
14,Cc1ccc(S(=O)(=O)Nc2nc3ccccc3nc2Nc2cccc(S(=O)(=O)N3CCCC3)c2)cc1,133
15,COc1ccc(N=c2oc3cc(O)ccc3cc2C(=O)NCC2CCCO2)cc1 (centres undefined),126
16,O=c1c2ccccc2sn1-c1nccs1,73.6
17,O=C(Nc1ccc(Nc2ccncc2)cc1)c1ccc(Nc2ccnc3ccc([N+](=O)[O-])cc23)cc1,105
18,COc1ccc(-n2c(N)c(C(=O)NCc3ccco3)c3nc4ccccc4nc32)cc1,130
19,Cc1ccc(CN2C(=O)N/C(=C\c3ccc(-c4ccc(C(=O)O)cc4C)o3)C2=O)cc1,98.2
20,O=C(N/N=C/c1ccc(-c2ccc(Cl)c(C(=O)O)c2)o1)c1cc2c(ccc3ccccc32)o1,70.6
21,CCN(CC)c1ccc2cc(-c3nc(-c4ccc(OC)cc4)cs3)c(=O)oc2c1,71.5
22,CCOC(=O)c1c(NC(=O)CSc2ncccn2)sc2c1CCN(Cc1ccccc1)C2,160
23,CN(C)c1ccc(/C=C(\C#N)C(=O)NCc2ccco2)cc1,106
24,COc1cc(C2C=C(c3cccs3)Nc3ncnn32)cc(OC)c1OC (centres undefined),70.6
25,N#Cc1cc2c(=O)n3ccccc3nc2n(-c2ccc(Cl)cc2)c1=O,70.6
26,CCC(CO)[n+]1c(C)cc(/C=C2\Sc3ccccc3N2Cc2ccccc2)cc1C (centres undefined),134

row,Structure (SMILES),inhibition [%]
1,CCn1c(=N)c(C(=O)NCc2cccnc2)cc2c(=O)n3cccc(C)c3nc21,72.9
2,CCCn1nc(C(=O)Oc2ccc3c(C)cc(=O)oc3c2)c2ccccc2c1=O,90.9
3,CCSc1nc(N2CCOCC2)c2c(c1C#N)CC(C)(C)N(C)C2,115
4,COC(=O)CSc1nc(N2CCOCC2)c2c(c1C#N)CC(C)(C)N(C)C2,72.9
5,CC(C)Cn1c(N)c(C(=O)NCC2CCCO2)c2nc3ccccc3nc21 (centres undefined),77.9
6,O=C(O)CCC(=O)c1ccc2ccc3cccc4ccc1c2c34,89.3
7,CCCN1CC=C2C(C#N)=C(N)C(C#N)(C#N)C(c3cccc(OC)c3OC)C2C1 (centres undefined),71.5
8,Cc1ccc(-c2nc(N)s[n+]2-c2ccccc2)cc1,64
9,CCOC(=O)C1=C(C)NC2=C(C(=O)C(C(=O)OCC)C(c3cccc(OC)c3)C2)C1c1ccccn1 (centres undefined),87.8
10,COc1ccc(C2C(C(=O)c3cccs3)=C(O)C(=O)N2c2nncs2)cc1 (centres undefined),92.2
11,COC(=O)c1c(N)n(-c2ccc(NC(C)=O)cc2)c2nc3ccccc3nc12,76.9
12,COc1cccc(C2C(C(=O)Nc3nc4ccccc4s3)=C(C)NC3=C2C(=O)CC(C)(C)C3)c1OC (centres undefined),130
13,CCN1CCN(C2=CC3=CC(=C(C#N)C#N)CCC3CC2)CC1 (centres undefined),70.6
14,CCOCCCNC(=S)NCCCNc1nc2cc3c(cc2cc1C#N)OCO3,150
15,COCCCn1c(=N)c(C(=O)NCC2CCCO2)cc2c(=O)n3cccc(C)c3nc21 (centres undefined),71.5
16,N#C/C(=C\c1c(N2CCCCC2)nc2ccccn2c1=O)C(=O)NC1CCS(=O)(=O)C1 (centres undefined),71.5
17,COC(=O)C1=CN(CC2CCCO2)C=C(C(=O)OC)C1c1cc(OC)c(OC)c(OC)c1 (centres undefined),90.2
18,O=C1/C(=C/N(C(=O)c2ccco2)c2ccc(Cl)cc2)Sc2ccccc21,58.7
19,COc1cccc2c(=O)c3c(cnn3C)n(C)c12,71.5
20,C=CCc1cc(/C=C/c2nc(O)c([N+](=O)[O-])c(=O)[nH]2)cc(OC)c1O,101
21,CC(C)C(=O)N(c1cc2sc(=O)oc2c2ccccc12)S(=O)(=O)c1cccs1,34.8
22,O=C(O)C1Sc2[nH]c(=O)sc2C2c3ccc(O)cc3OC(=O)C12 (centres undefined),70.6
23,CCC(C)/C=C/C1=CC2=C(Cl)C(=O)C3(C)OC(=O)C(C(=O)C(C)C(C)O)C3C2=CO1 (centres undefined),70.6
24,CCCc1c(C)c(C#N)c2nc3ccccc3n2c1NCCCN1CCOCC1,54.8
25,COc1ccc(C2CC(=O)N3CN(c4ccc(C)c(Cl)c4)CSC3=C2C#N)cc1OC (centres undefined),136
26,CCN1CCc2c(sc(NC(=S)NC(=O)c3ccco3)c2C(N)=O)C1,152
